Results: PubChem BioAssay AID588855 (National Center for Advancing Translational Sciences (NCATS), 2011)
About 5,000 (1.2%) of roughly 410,000 compounds were called active. The inconclusive results got no clear call from the source; some entries with a clear call stand among them for comparison. The call rests on the fitted dose curve; in most records, active means well fitted inhibition curve with a large enough effect; inconclusive means small, poorly fitted or top-dose-only effect; inactive means no such curve, though single readings can be large or run the other way. Potencies beside an inconclusive call are fits to weak or partial responses and may not hold up.
Potency means the concentration at half of the fitted maximal effect; tags describe the fitted curve by direction and shape.

Assay: qHTS for Inhibitors of TGF-b; further: nearly all actives have a fitted effect of over 65% in size
Settings: HepG2 CAGA-GFP TGF-b/SMAD3 reporter, GFP fluorescence, 18 h, TGF-beta stimulated, 500 pg/mL final; series mostly up to 46.1 µM
Summary of the method: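 TGF-beta reporter screen: HEPG2 CAGA-GFP, 1% FBS, 500 pg/mL TGF-beta final, 18 h; per-cell GFP summed per well; curves fitted and categorized by class.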
With `O=C(Cc1ccccc1)Nc1ccc(NC(=O)c2ccco2)cc1` the Potency was “inactive”.
For `COc1ccc(C2=NN(C(=O)CCC(=O)O)C(c3cccs3)C2)cc1OC` (centres undefined), the Potency was inconclusive: 5.62 µM [inhibitor, single point].
For `CN1CCN(c2ccc(NC(=O)c3ccccc3Br)cc2)CC1`, the Potency was inconclusive: 35.5 µM [inhibitor, single point].
For `CCOC(=O)c1cccc(NC(=O)c2cccs2)c1`, the Potency was “inactive”.
With `O=C(NCc1cccc(F)c1)c1ccc2nc(N3CCOCC3)sc2c1` the Potency was inconclusive: 3.55 µM [inhibitor, partial curve, poor fit].
In the case of `CCOc1ccc(Oc2ccccc2NC(=O)CSCC(=O)Nc2cc(C)on2)cc1`, the Potency is reported as “inactive”.
In the case of `CCOc1ccc(CCNC(=O)c2cc3c(=O)n(CC)c4ccccc4c3s2)cc1OCC`, the Potency is reported as inconclusive: 0.112 µM [inhibitor, full curve, poor fit].
In the case of `O=C(O)CCN1C(=O)/C(=C\c2cccc(OCC(=O)Nc3ccc(Cl)cc3)c2)SC1=S`, the Potency is reported as inconclusive: 20 µM [inhibitor, single point].
In the case of `NC(=O)NC(CC(=O)NCCc1ccccn1)c1ccccc1Cl` (centres undefined), the Potency is reported as “inactive”.
For `CCc1cccc(NC(=O)CSc2nncn3c2cc2sccc23)c1`, the Potency was inconclusive: 35.5 µM [inhibitor, single point].
For `CCn1c2ccccc2c2cc(CN3CCN(Cc4cc(OC)c(O)c(OC)c4)CC3)ccc21`, the Potency was inconclusive: 11.2 µM [inhibitor, partial curve, poor fit].
With `Cn1nnc(NC(=S)NC(=O)c2cc(Cl)ccc2Cl)n1` the Potency was inconclusive: 22.4 µM [inhibitor, single point].
In the case of `COc1ccc(N2CCN(c3ccc(-c4nc(-c5ccccc5)no4)cc3[N+](=O)[O-])CC2)cc1`, the Potency is reported as “inactive”.
In the case of `Cc1ccc(N(Cc2cccs2)C(=O)C(C)Oc2ccc(Cl)c(C)c2)cc1` (centres undefined), the Potency is reported as inconclusive: 11.2 µM [inhibitor, partial curve, poor fit].
For `CC(=O)NC(CC(=O)OCC(=O)Nc1ccc2c(c1)OCO2)c1ccccc1` (centres undefined), the Potency was “inactive”.
In the case of `COC(=O)CCC(=O)NC(=S)Nc1c(C)cccc1C`, the Potency is reported as “inactive”.
In the case of `CC(C)c1ccc(S(=O)(=O)Nc2ccc(SC(F)F)cc2)cc1`, the Potency is reported as inconclusive: 12.6 µM [inhibitor, partial curve, poor fit].
In the case of `COc1cccc2c1C(CCCC(=O)O)CCC2` (centres undefined), the Potency is reported as “inactive”.
In the case of `Cc1cccc(NC(=O)CNC(=O)Cn2cc(C(F)(F)F)cc(Cl)c2=O)c1C`, the Potency is reported as inconclusive: 6.31 µM [inhibitor, single point].
For `CC1CCCCC12NC(=O)N(CC(=O)Nc1ccc(N3CCCCC3)cc1)C2=O` (centres undefined), the Potency was “inactive”.
For `CCCN(CCC)S(=O)(=O)c1cccc(-c2csc(C)n2)c1`, the Potency was “inactive”.
In the case of `CCCCCC(=O)Nc1cccc(C2=NOC3(C2)C[C@@H](C(N)=O)N(C(=O)Cc2ccc([N+](=O)[O-])cc2)C3)c1` (some centres undefined), the Potency is reported as inconclusive: 0.631 µM [inhibitor, full curve, poor fit].
With `O=C(O)c1ccc(-n2ncc3c2/C(=C/c2cccc([N+](=O)[O-])c2)CC3)cc1` the Potency was “inactive”.
With `CC1=C(C(=O)Nc2cccnc2)C(c2cccc(F)c2)n2nc(SCc3ccccc3F)nc2N1` (centres undefined) the Potency was inconclusive: 2.51 µM [inhibitor, partial curve, poor fit].
With `CCCNC(=O)Cn1c(=O)cnc2ccccc21` the Potency was “inactive”.
With `CC(=O)N1c2ccc(S(=O)(=O)NCc3ccccc3Cl)cc2CC1C` (centres undefined) the Potency was inconclusive: 12.6 µM [inhibitor, partial curve, poor fit].
With `NC(=NCCCCCCN=C(N)/N=C(\N)Nc1ccc(Cl)cc1)/N=C(\N)Nc1ccc(Cl)cc1` the Potency was inconclusive: 12.6 µM [inhibitor, single point].
For `COc1ccc(N2CCN(C(=O)C3CCCN(C(=O)c4cc5sccc5n4C)C3)CC2)cc1` (centres undefined), the Potency was inconclusive: 35.5 µM [inhibitor, single point].
In the case of `COc1cccc(C2C(C(=O)Nc3ccc(Cl)cc3)=C(C)Nc3nc4ccccc4n32)c1OC` (centres undefined), the Potency is reported as inconclusive: 2.24 µM [inhibitor, partial curve, poor fit].
With `COc1ccc(OC)c(N=Nc2c(O)c3ccccc3[nH]c2=O)c1` the Potency was “inactive”.
In the case of `Cc1ccc(C)c(N2CCN(C(=O)c3cc4c(C)nc5ccccc5c4o3)CC2)c1`, the Potency is reported as inconclusive: 12.6 µM [inhibitor, partial curve, poor fit].
With `O=c1cc(-c2ccncc2)oc2c1ccc1ccccc12` the Potency was inconclusive: 1.78 µM [inhibitor, full curve].
With `Cc1cccc(N(O)C(=O)Nc2cccc(Cl)c2)c1` the Potency was inconclusive: 35.5 µM [inhibitor, single point].
In the case of `CC(C)(C)C(=O)OCc1nc(-c2ccc(O)c(O)c2)cs1`, the Potency is reported as inconclusive: 35.5 µM [inhibitor, single point].
With `CCCCNC(=O)c1c(-c2ccccc2)c(-c2ccccc2)nn(C)c1=O` the Potency was “inactive”.
With `CCCn1c(C2CCCN2c2nc(C)cs2)nc2cc(Cl)c(Cl)cc21` (centres undefined) the Potency was inconclusive: 25.1 µM [inhibitor, single point].
In the case of `COc1ccc(-c2oc3ccccc3c(=O)c2OC(C)=O)cc1`, the Potency is reported as inconclusive: 35.5 µM [inhibitor, single point].
For `COc1cccc(-n2cnc3scc(-c4cccs4)c3c2=O)c1`, the Potency was “inactive”.
With `Cc1ccc2c(c1)N(C(=O)N1CCC(C(=O)NCc3ccccc3C)CC1)CC(C)O2` (centres undefined) the Potency was inconclusive: 15.8 µM [inhibitor, single point].
In the case of `COc1ccc(-c2csc(C(O)c3cccc(OC)c3)n2)cc1` (centres undefined), the Potency is reported as inconclusive: 35.5 µM [inhibitor, single point].
In the case of `COc1cccc(NC(=O)CN(C)C(=O)/C=C/c2ccc(S(=O)(=O)N3CCCCCC3)cc2)c1`, the Potency is reported as “inactive”.
For `CN(C)c1ccc(/C=C/C=N/Nc2nc(N3CCOCC3)nc(N3CCOCC3)n2)cc1`, the Potency was inconclusive: 20 µM [inhibitor, single point].
In the case of `COc1ccc(S(=O)(=O)N(CC(=O)NCc2ccccn2)c2ccc(Cl)cc2)cc1`, the Potency is reported as inconclusive: 0.112 µM [inhibitor, full curve].
For `Cc1ccc2oc(-c3ccc(NC(=O)CC(C)C)cc3)nc2c1`, the Potency was “inactive”.
In the case of `CC1(c2ccc(Cl)cc2)CC(C)(C)N(C(=O)c2ccccc2)c2ccccc21` (centres undefined), the Potency is reported as inconclusive: 14.1 µM [inhibitor, partial curve, poor fit].
For `Cc1ccc(CN2CCC(CNc3ncnc4onc(-c5ccc(Cl)cc5)c34)CC2)cc1`, the Potency was “inactive”.
With `CC(=O)Nc1nc(C)c(-c2nc3ccc([N+](=O)[O-])cc3[nH]2)s1` the Potency was “inactive”.
In the case of `O=C(c1ccc(-c2ccccc2)cc1)N1CCN(c2ccccn2)CC1`, the Potency is reported as inconclusive: 14.1 µM [inhibitor, single point].
For `OC(CNCCc1ccc(C(F)(F)F)cc1)COC(c1ccccc1)c1ccccc1` (centres undefined), the Potency was inconclusive: 35.5 µM [inhibitor, single point].
In the case of `COc1ccc(C(O)(CCC(C)C)C(CN2CCOCC2)c2ccc(Cl)cc2)cc1` (centres undefined), the Potency is reported as inconclusive: 28.2 µM [inhibitor, single point].
For `Cc1cccc(CC2S/C(=N/N=C/c3ccco3)NC2=O)c1` (centres undefined), the Potency was inconclusive: 6.31 µM [inhibitor, single point].
For `Cc1cc(C(=O)CSc2nc(N)cc(N)n2)c(C)n1CCc1ccc(F)cc1`, the Potency was inconclusive: 12.6 µM [inhibitor, single point].
With `CCN(CC)CCCC(C)n1c2nc(=O)[nH]c(=O)c-2nc2cc(Cl)ccc21` (centres undefined) the Potency was inconclusive: 35.5 µM [inhibitor, single point].
With `COc1ccc(CCNC(=O)CCn2c(=O)c3cccn3c3ccc(F)cc32)c(OC)c1OC` the Potency was inconclusive: 35.5 µM [inhibitor, single point].
In the case of `NS(=O)(=O)c1ccc(NC(=S)NC(=O)/C=C/c2cccs2)cc1`, the Potency is reported as “inactive”.
For `COc1ccc(-c2csc(NC(C)c3nc4cc(C(F)(F)F)ccc4n3CCOCCO)n2)cc1` (centres undefined), the Potency was active: 12.6 µM.
In the case of `Cc1ccc(C)c(NC(=O)NC2CCCCCCC2)c1`, the Potency is reported as “inactive”.
With `CN(Cc1ccccc1)c1ccc(C(=O)O)cc1[N+](=O)[O-]` the Potency was “inactive”.
With `COc1ccc(-n2ncc(C(=O)NCc3ccccc3)c2C2CCN(C(=O)OC(C)(C)C)CC2)cc1` the Potency was inconclusive: 0.141 µM [inhibitor, full curve, poor fit].
In the case of `Cc1ccc2[nH]c3nc(N/N=C/c4cccc(O)c4)nnc3c2c1`, the Potency is reported as “inactive”.
With `CCOC(=O)C1=C(N)OC2=C(C(=O)CCC2)C1c1ccco1` (centres undefined) the Potency was inconclusive: 6.31 µM [inhibitor, single point].
With `CCOC(=O)/C=C1\CC(C(=O)OCC)Oc2c(OC)cccc21` (centres undefined) the Potency was inconclusive: 0.562 µM [inhibitor, full curve, poor fit].
In the case of `COc1ccc(CN2CCCC(C(=O)c3cccc(OC(C)C)c3)C2)cc1Cn1cccn1` (centres undefined), the Potency is reported as inconclusive: 12.6 µM [inhibitor, partial curve, poor fit].
With `CCc1cc(CNC(=O)c2cc(COc3ccc(C)nc3)on2)on1` the Potency was inconclusive: 17.8 µM [inhibitor, single point].
For `Cc1ccc(N2CC(C(=O)Nc3ccccc3OC(F)F)CC2=O)cc1` (centres undefined), the Potency was “inactive”.
For `CC(=Nc1cccc(O)c1)c1sc2ccccc2c1O`, the Potency was inconclusive: 3.55 µM [inhibitor, full curve].
With `Cc1nn(-c2ccccc2)c(Cl)c1C(=O)Nc1nnc(C2CCCCC2)s1` the Potency was “inactive”.
For `CC1CC(C)CN(S(=O)(=O)c2ccc(Oc3ccc([N+](=O)[O-])cc3)cc2)C1` (centres undefined), the Potency was inconclusive: 6.31 µM [inhibitor, partial curve, poor fit].
With `Cc1ccc(C)c(N2C(=O)c3cc(N4CCOCC4)c([N+](=O)[O-])cc3C2=O)c1` the Potency was “inactive”.
